Structures are written as SMILES.

From patent publication US7414110B2, “Human calcium channel compositions and methods” (Merck & Co., Inc., priority 1990, dated 2008) come the findings set out here.

This test addresses human neuronal calcium channel α1D, α2 and β1 subunits (Homo sapiens, UniProt Q01668, S1346F/Y1433H). The format is cell-based. Also noted: expressed in transfected cells; host or cells: Xenopus laevis oöcytes injected with in vitro transcripts.

On to `COC(=O)C1=C(C)NC(C)=C([N+](=O)[O-])C1c1ccccc1C(F)(F)F` (stereo not drawn) [Bay K 8644], for which the “magnitude of the inward barium currents” value is “increased the magnitude of the currents”, the “shift in current activation” value is given as “hyperpolarizing shift” and the “tail currents upon repolarization” value is reported as “prolonged the tail currents”.
